{
  "source": "PubChem BioAssay AID1865",
  "about": "(National Center for Advancing Translational Sciences (NCATS), 2009)",
  "note": "Hit rate of the full screen: of about 280,000 compounds, about 540 (0.19%) were called active. Inconclusive means that the source gave no clear call. Such entries were picked first, then a sample of the others. Calls come from the whole dose curve; as a rule, active = well fitted activation curve with a large enough effect; inconclusive = small, poorly fitted or top-dose-only effect; inactive = flat fitted curve, though single readings scatter. Where the call is inconclusive, the potency comes from a doubtful curve fit.",
  "data": [
    {"test": "Quantitative High-Throughput Screen for Regulators of Epigenetic Control; note: nearly all actives have a fitted effect of over 60% in size; note: potency is the fitted concentration of half-maximal effect; tags give direction and shape of the fitted curve; for GFP activation: % of control where 0% means no effect", "conditions": "murine LDR cells, GFP reporter derepression, 30 h; GFP activation: at 53.9 µM (top of the series)", "method_in_brief": "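Murine LDR cells bearing a silenced CMV-driven GFP reporter were exposed to compound for 30 h at 37 C. After PBS washes, GFP-positive cells (20-120 um objects) counted by laser-scanning microplate cytometry.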", "values": [
      {"molecule": "Cc1ccc(NC(=O)c2ccc(NCC3CCCO3)c([N+](=O)[O-])c2)cc1Cl", "note": "(centres undefined)", "Potency": "inconclusive: 35.5 µM [activator, single point]"},
      {"molecule": "Cc1c(C(=O)Oc2cccc3cccnc23)oc2ccccc12", "Potency": "inconclusive: 12.6 µM [activator, single point]"},
      {"molecule": "Cc1nn(-c2cc(N(S(C)(=O)=O)S(C)(=O)=O)c(Cl)cc2Cl)c(=O)n1C", "Potency": "inconclusive: 20 µM [activator, single point]"},
      {"molecule": "CCn1c(=O)n(CC)c2cc(N3CCCC3)c(NC(=O)Nc3cc(C)cc(C)c3)cc21", "Potency": "inconclusive: 35.5 µM [activator, single point]"},
      {"molecule": "O=[N+]([O-])c1ccc(C2Oc3ccccc3C3CC(c4ccccc4)=NN32)s1", "note": "(centres undefined)", "Potency": "inconclusive: 17.8 µM [activator, single point]"},
      {"molecule": "CCCn1c(NC(=S)Nc2ccccc2)nc2ccccc21", "Potency": "inactive"},
      {"molecule": "Cc1ccc(CN2CCN(C3CCN(S(=O)(=O)N(C)C)CC3)C(=O)C2=O)cc1", "Potency": "inconclusive: 25.1 µM [activator, single point]"},
      {"molecule": "Nc1c(C(=O)c2ccccc2)sc2nsc(SCCN3CCCC3)c12", "Potency": "inconclusive: 12.6 µM [activator, single point]"},
      {"molecule": "CCOC(=O)c1nnc(-c2ccc(C)cc2)nc1Oc1ccccc1Cl", "Potency": "inconclusive: 35.5 µM [activator, single point]"},
      {"molecule": "COc1ccccc1CNC(=O)CN1C(=O)CCc2cc(S(=O)(=O)N3CCOCC3)ccc21", "Potency": "inconclusive: 35.5 µM [activator, single point]"},
      {"molecule": "COCCCn1c(O)c(/C=C2\\N=C(C#N)C(=Nc3ccc(C)cc3)O2)sc1=S", "Potency": "inconclusive: 12.6 µM [activator, partial curve]"},
      {"molecule": "O=C(CCc1ccccc1)NNc1cc(N2CCCCC2)nc(N2CCCCC2)n1", "Potency": "inconclusive: 35.5 µM [activator, single point]"},
      {"molecule": "O=C(Nc1nc(-c2ccccn2)cs1)c1cc(Cl)ccc1[N+](=O)[O-]", "Potency": "inconclusive: 31.6 µM [activator, single point]"},
      {"molecule": "CSc1ccc(CCNC(=O)c2ccc(-n3c(C)cc4c3CCCC4)cc2)cc1", "Potency": "inconclusive: 25.1 µM [activator, single point]"},
      {"molecule": "CC(=O)Nc1nnc(SCC(=O)N2CCCc3ccccc32)s1", "Potency": "inconclusive: 6.31 µM [activator, single point]"},
      {"molecule": "Fc1ccc(N2CCN(c3nc(CN4CCOCC4)nc4scc(-c5ccccc5)c34)CC2)cc1", "Potency": "inactive"},
      {"molecule": "Cc1cc(C)c2oc(-c3ccc(C)c(NC(=S)NC(=O)c4cccs4)c3)nc2c1", "Potency": "inconclusive: 20 µM [activator, single point]"},
      {"molecule": "O=C(Nc1ccccc1C(=O)OCC(=O)c1c[nH]c2ccccc12)c1ccco1", "Potency": "inconclusive: 35.5 µM [activator, single point]"},
      {"molecule": "Cc1csc2nc(COc3ccccc3NC(=O)c3ccccc3Cl)cc(=O)n12", "Potency": "inconclusive: 31.6 µM [activator, single point]"},
      {"molecule": "Cc1cccc(/N=C/c2sc3ccccc3c2O)n1", "Potency": "inactive"},
      {"molecule": "O=C(c1cc(-c2cccnc2)nc2ccc(Br)cc12)N1CCN(c2ncccn2)CC1", "Potency": "inactive"},
      {"molecule": "Cc1ccc2c(c1)CCCN2C(=O)c1cc2ccccc2oc1=O", "Potency": "inconclusive: 7.08 µM [activator, partial curve]"},
      {"molecule": "CN(C)S(=O)(=O)c1cccc(NC(=S)Nc2ccc(Cl)cc2Cl)c1", "Potency": "inactive"},
      {"molecule": "O=C(NCCCn1ccnc1)c1cc(-c2cccs2)on1", "Potency": "inconclusive: 31.6 µM [activator, single point]"},
      {"molecule": "COc1ccc(NC(=O)CSc2nc(O)c(Cc3ccccc3)c(=O)[nH]2)cc1", "Potency": "inactive"},
      {"molecule": "CC(C)n1c(O)c(N=Nc2ccc(Cl)nn2)c2ccccc21", "Potency": "inconclusive: 28.2 µM [activator, single point]"},
      {"molecule": "CCOc1cccc(C(=O)Nc2cccc(-c3nnc(-c4ccccc4)o3)c2)c1", "Potency": "inconclusive: 15.8 µM [activator, single point]"},
      {"molecule": "O=C(NC(=S)N(Cc1ccccc1)c1ccccn1)C1CC1", "Potency": "inconclusive: 28.2 µM [activator, single point]"},
      {"molecule": "CCOC(=O)c1ccc(NC(=O)Cn2cc(C(=O)c3ccc(Cl)cc3)c(=O)c3ccc(C)nc32)cc1", "Potency": "inconclusive: 31.6 µM [activator, single point]"},
      {"molecule": "COc1ccc(NC(=O)C2CC(=O)n3ncnc3N2)cc1", "note": "(centres undefined)", "Potency": "inactive"},
      {"molecule": "CCN1C(=O)/C(=C2/Sc3ccccc3N2CC)S/C1=N\\c1ncn[nH]1", "Potency": "inconclusive: 11.2 µM [activator, partial curve]"},
      {"molecule": "Cc1cccc(-n2[nH]c(C)c(C=Nc3ccc4[nH]c(=O)[nH]c4c3)c2=O)c1", "Potency": "inconclusive: 31.6 µM [activator, single point]"},
      {"molecule": "COC(=O)c1ccc(NC(=O)COc2ccc([N+](=O)[O-])cc2)cc1", "Potency": "inactive"},
      {"molecule": "COc1cccc([C@@H]2Oc3ccc(OC)cc3/C(=N/O[C@@H](C)c3cc(-c4c(C)cc(C)cc4C)no3)[C@@H]2O)c1", "GFP activation": "inactive: 0.833% [at 10.1 µM]"},
      {"molecule": "O=C(COC(=O)c1cnccn1)c1ccc(Cl)c([N+](=O)[O-])c1", "Potency": "inconclusive: 35.5 µM [activator, single point]"},
      {"molecule": "CCSC1(SCC)N=C(N)C2(C#N)C(c3ccc(F)cc3)C12C#N", "note": "(centres undefined)", "Potency": "inconclusive: 35.5 µM [activator, single point]"},
      {"molecule": "COc1cc2c3nnc(-c4ccccc4)c-3cn(Cc3ccc(F)cc3)c2cc1OC", "Potency": "inconclusive: 35.5 µM [activator, single point]"},
      {"molecule": "CCO/N=C(/c1nonc1N)N1CCN(c2ccc([N+](=O)[O-])cc2)CC1", "Potency": "inconclusive: 22.4 µM [activator, single point]"},
      {"molecule": "COc1ccc(NC(=O)CN(c2ccc(C)cc2)S(=O)(=O)c2cccs2)cc1", "Potency": "inconclusive: 17.8 µM [activator, single point]"},
      {"molecule": "CC1CCCN(c2nc(-c3cccnc3)nc3scc(-c4ccccc4)c23)C1", "note": "(centres undefined)", "Potency": "inactive"},
      {"molecule": "CCOc1ccc(NC(=O)C(=O)NCc2ccncc2)cc1", "Potency": "inconclusive: 12.6 µM [activator, single point]"},
      {"molecule": "O=C1c2cccc([N+](=O)[O-])c2C(=O)N1CCO", "Potency": "inactive"},
      {"molecule": "COc1cc(Cl)c(C)cc1NC(=O)c1cc2c(s1)-c1c(C)cccc1OC2", "Potency": "inactive"},
      {"molecule": "CCC(=O)N1CCc2cc(S(=O)(=O)NC(CC(C)C)C(=O)NCc3ccc(C)cc3)ccc21", "note": "(centres undefined)", "Potency": "inconclusive: 3.98 µM [activator, full curve, poor fit]"},
      {"molecule": "CC(=O)n1cc([C@@H]2C=C(C(=O)NCc3ccccc3)O[C@H](OCc3ccc(CO)cc3)C2)c2ccccc21", "Potency": "inconclusive: 25.1 µM [activator, single point]"},
      {"molecule": "C/C(CCc1oc2ccccc2c1-c1ccc(C)o1)=N/O", "Potency": "inactive"},
      {"molecule": "O=C(CSc1nnc2c(n1)[nH]c1ccccc12)Nc1cccc(S(=O)(=O)N2CCOCC2)c1", "Potency": "inconclusive: 35.5 µM [activator, single point]"},
      {"molecule": "CC(=O)Oc1c2c(c3c(c1CC=C(C)C)O[C@@]14C(=CC5CC1C(C)(C)OC4(C/C=C(\\C)C(=O)O)C5=O)C3=O)OC(C)(CCC=C(C)C)C=C2", "note": "(some centres undefined)", "Potency": "inconclusive: 5.01 µM [activator, single point]"},
      {"molecule": "COc1ccc(OC)c(NS(=O)(=O)c2ccc(Br)s2)c1", "Potency": "inconclusive: 35.5 µM [activator, single point]"},
      {"molecule": "O=C1c2ccccc2C(=O)c2c(O)ccc(O)c21", "Potency": "inconclusive: 2.82 µM [activator, full curve, poor fit]"},
      {"molecule": "CCOC(=O)c1ccc(NC(=O)c2nc[nH]c2C(=O)N[C@@H](CC(C)C)C(=O)OCc2ccccc2)cc1", "Potency": "inconclusive: 35.5 µM [activator, single point]"},
      {"molecule": "COC/C=C/C1=CC2=CC(=O)C(C)(OC(=O)c3cnc4ccccc4n3)C(=O)C2=CO1", "note": "(centres undefined)", "Potency": "inconclusive: 22.4 µM [activator, single point]"},
      {"molecule": "COc1ccc2cc(/C=N/NC(=O)c3c(Cl)cnn3C)c(Cl)nc2c1", "Potency": "inconclusive: 31.6 µM [activator, single point]"},
      {"molecule": "O=C(/C=C/c1ccccc1F)c1ccoc1", "Potency": "inconclusive: 31.6 µM [activator, single point]"},
      {"molecule": "Cc1ccccc1C(=O)Nc1cccc(C(=O)OCc2cc(=O)n3nc(C4CC4)sc3n2)c1", "Potency": "inconclusive: 31.6 µM [activator, single point]"},
      {"molecule": "Cc1ccc(C(=O)CC(C(=O)O)n2cnc([N+](=O)[O-])n2)cc1", "note": "(centres undefined)", "Potency": "inactive"},
      {"molecule": "Cn1cc(/C=C2\\SC(=O)N(c3ccccc3)C2=O)c2ccccc21", "Potency": "inconclusive: 11.2 µM [activator, partial curve]"},
      {"molecule": "COC(=O)CSc1nc(N)c2c3c(sc2n1)C(c1ccccc1)SC(c1ccccc1)C3", "note": "(centres undefined)", "Potency": "inconclusive: 35.5 µM [activator, single point]"},
      {"molecule": "Cc1ccc2onc(CC(=O)N3CCN(c4cccc(C)c4C)CC3)c2c1", "Potency": "inactive"},
      {"molecule": "Cc1ccc(C)c(Cn2c(=O)cc(C)c3c(C)nn(C)c32)c1", "Potency": "inconclusive: 20 µM [activator, single point]"},
      {"molecule": "Cc1cc(C)c(S(=O)(=O)/N=C2\\C=CC(=O)C(Cl)=C2)c(C)c1", "Potency": "inactive"},
      {"molecule": "CC1(C)Cc2ccccc2/C(=C/C(=O)N2CCCCCC2)N1", "Potency": "inactive"},
      {"molecule": "C=CCn1c(SCC(=O)Nc2ccccc2C)nc2sc(C)c(C)c2c1=O", "Potency": "inconclusive: 31.6 µM [activator, single point]"},
      {"molecule": "CCOC(=O)CCN1C(=O)[C@@H]2[C@H]3C(=CC[C@H]2C1=O)C(=O)[C@H]1O[C@H]1[C@H]3O", "Potency": "inconclusive: 1.26 µM [activator, single point]"}
    ]}
  ]
}
